Source: patent publication EP0519976B1, “NEUTROPHIL STIMULATING PEPTIDES” (PEPTIDE TECHNOLOGY LTD, priority 1990, dated 1997)
Entries after “also recorded” stand apart in the source; their conditions may differ. At least one peptide structure holds a part that was inferred or is arguable (an end, a ring closure or a residue). Some compounds share one wording; it may come from a single statement. Where no end group is shown, it is not given here.

Columns and labels:
[1] = test system: Purified human neutrophils; experiment: Lucigenin dependent chemiluminescence assay (neutrophil respiratory burst / priming for F-met-leu-phe response); type: cell-based; conditions: for lucigenin dependent chemiluminescence, peak of response: 20 min pretreatment, then f-met-leu-phe; for lucigenin dependent chemiluminescence: Table 3 repeat
neutrophils [2] = experiment: Superoxide formation by cytochrome reduction assay; type: cell-based
neutrophils [3] = experiment: Neutrophil random migration out of wells in agarose; type: cell-based; conditions: for Inhibition of Migration: negative = stimulation
neutrophils [4] = experiment: Chemotactic properties, agarose well migration; type: cell-based; conditions: Table 8 is an image
neutrophils [5] = experiment: Neutrophil degranulation: Vitamin B12 binding protein release (specific granules); type: cell-based; conditions: 100µg/10^6 cells, CytoB
neutrophils [6] = experiment: Neutrophil degranulation: β-glucuronidase release (azurophilic granules); conditions: 100µg/10^6 cells, CytoB

## GLYLIYSQVLFKGQG [peptide 308, G L Y L I Y S Q V L F K G Q G]
[1]
  priming of human neutrophils for the respiratory burst associated with f-met-leu-phe treatment (in words): found to prime human neutrophils; also recorded: particularly potent primer of neutrophils
[1]; 1 µg/10^6 cells
  lucigenin dependent chemiluminescence, peak of response: 0.91 mV
[1]; 10 µg/10^6 cells
  lucigenin dependent chemiluminescence, peak of response: 4.80 mV
[1]; 100 µg/10^6 cells
  lucigenin dependent chemiluminescence, peak of response: 49.52 mV
[1]; 10 µg/10^6 cells, + fMLP
  lucigenin dependent chemiluminescence: 2.74 mV
[1]; 10 µg/10^6 cells, peptide alone
  lucigenin dependent chemiluminescence: 1.00 mV
[1]; 100 µg/10^6 cells, + fMLP
  lucigenin dependent chemiluminescence: 28.56 mV
[1]; 100 µg/10^6 cells, peptide alone
  lucigenin dependent chemiluminescence: 11.76 mV
Neutrophils [2]; 10 µg/5 x 10^5 cells, + fMLP
  superoxide formation: 5.00 n moles of O2/5x10^5 cells
Neutrophils [2]; 10 µg/5 x 10^5 cells, peptide alone
  superoxide formation: 2.78 n moles of O2/5x10^5 cells
Neutrophils [2]; 100 µg/5 x 10^5 cells, + fMLP
  superoxide formation: 6.729 n moles of O2/5x10^5 cells
Neutrophils [2]; 100 µg/5 x 10^5 cells, peptide alone
  superoxide formation: 4.892 n moles of O2/5x10^5 cells
Neutrophils [3]; 10 µg/10^6 cells
  Inhibition of Migration: 0%
Neutrophils [3]; 100 µg/10^6 cells
  Inhibition of Migration: 100%
Neutrophils [3]; column head 0 µg/10^6 cells
  Inhibition of Migration: 0%
Neutrophils [3]; pre-treated with peptide or TNF, TNF at 100 units/10^6 cells
  effect on migration of neutrophils (in words): potent migration inhibitors
Neutrophils [4]
  chemotactic properties (in words): strongly chemotactic
Neutrophils [5]; + fMLP, Exp. 1
  Vitamin B12 Binding Protein: 35.81
Neutrophils [5]; + fMLP, Exp. 2
  Vitamin B12 Binding Protein: 27.59
Neutrophils [5]; + fMLP, Exp. 3
  Vitamin B12 Binding Protein: 26.55
Neutrophils [5]; + fMLP, Exp. 4
  Vitamin B12 Binding Protein: 21.51
Neutrophils [5]; peptide alone, Exp. 1
  Vitamin B12 Binding Protein: 2.00
Neutrophils [5]; peptide alone, Exp. 2
  Vitamin B12 Binding Protein: 2.08
Neutrophils [5]; peptide alone, Exp. 3
  Vitamin B12 Binding Protein: 5.70
Neutrophils [5]; peptide alone, Exp. 4
  Vitamin B12 Binding Protein: 2.25
Neutrophils [6]; + fMLP, Exp. 1
  β-glucuronidase release (%): 17.57%
Neutrophils [6]; + fMLP, Exp. 2
  β-glucuronidase release (%): 28.86%
Neutrophils [6]; + fMLP, Exp. 3
  β-glucuronidase release (%): 17.86%
Neutrophils [6]; + fMLP, fourth column (Exp.)
  β-glucuronidase release (%): 18.20%
Neutrophils [6]; peptide alone, Exp. 1
  β-glucuronidase release (%): 0.8%
Neutrophils [6]; peptide alone, Exp. 2
  β-glucuronidase release (%): 0.65%
Neutrophils [6]; peptide alone, Exp. 3
  β-glucuronidase release (%): 2.76%
Neutrophils [6]; peptide alone, fourth column (Exp.)
  β-glucuronidase release (%): 0.72%
